Measurements taken from PubChem BioAssay AID686978 (National Center for Advancing Translational Sciences (NCATS), 2013).
In all, about 420,000 compounds went through this assay and about 64,000 (15%) were called active. The shares of active, inactive and inconclusive entries below differ from those in the screen. Calls come from the whole dose curve; as a rule, active = well fitted inhibition curve with a large enough effect; inconclusive = small, poorly fitted or top-dose-only effect; inactive = flat fitted curve, though single readings scatter. No potency is given beside an inconclusive call; the fits are too rough.

Assay: qHTS for Inhibitors of human tyrosyl-DNA phosphodiesterase 1 (TDP1): qHTS in cells in absence of CPT; note: nearly all actives have a fitted effect of over 55% in size
Conditions: DT40 Tdp1-/- hTDP1 cells, no CPT, ATP luminescence, 48 h; activity change, negative = growth inhibition: at 46.2 µM (top of the series) unless noted
How it was run: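 Cells were dispensed at 400 per well, compounds added by pin tool, plates incubated ≥48 hr at 37 °C, then CellTiter-Glo added for 30 min at room temperature before luminescence reading. Line: DT40 Tdp1-/- complemented with hTDP1; camptothecin omitted.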
% is set by controls: 0 for no effect and ±100 for the full control effect; potency is the fitted concentration of half-maximal effect; tags give direction and shape of the fitted curve.

**Q.** Which Potency does the source give for `Cc1cc(O)c2c(c1)CC1C3CCC4CC(=O)CCC4(C)C3CC(=O)C21C` (stereo not drawn) here?
**A.** Its Potency is active: 11.6 µM.

**Q.** Which Potency does the source give for `CCOc1ccc(C(=O)NC2CCN(S(=O)(=O)c3ccccc3)CC2)cc1` here?
**A.** Its Potency is inconclusive [inhibitor, single point].

**Q.** For `O=C(C[n+]1cccc(NC(=O)c2ccccc2)c1)c1ccc(NC(=O)c2ccccc2)cc1`, which Potency is on record?
**A.** The Potency was inconclusive [inhibitor, single point].

**Q.** With `COc1cccc(NC(=O)c2ccccc2OCc2c(C)noc2C)c1` as the molecule, how does the Potency read?
**A.** Its Potency is inconclusive [inhibitor, single point].

**Q.** Which “activity change, negative = growth inhibition” value does the source give for `CC(=O)N/C(=C/C(C)C)c1ccccc1` here?
**A.** The value was inactive: 2.02%.

**Q.** For `Cc1cccc(NC(=O)CCS(=O)(=O)c2cc(Br)cc3c2N(C(=O)C2CC2)CC3)c1C`, which Potency is on record?
**A.** The Potency was inconclusive [inhibitor, partial curve].

**Q.** With `Cc1ccc(NC(=S)N(CCN(C)C)Cc2cccs2)cc1C` as the molecule, how does the Potency read?
**A.** Its Potency is inconclusive [inhibitor, single point].

**Q.** With `Cc1ccc(C)c2sc(NC(=O)c3nc4ccccc4s3)nc12` as the molecule, how does the Potency read?
**A.** Its Potency is inconclusive [inhibitor, single point].

**Q.** Which “activity change, negative = growth inhibition” value does the source give for `CCc1ccc(Nc2ccc(C(=O)O)cc2[N+](=O)[O-])cc1` here?
**A.** The value was inactive: -7.57%.

**Q.** For `COc1ccccc1-c1nnc(SCC(=O)Nc2ccc(N3CCOCC3)cc2)n1N`, which “activity change, negative = growth inhibition” value is on record?
**A.** Its value is inactive: -2.13%.

**Q.** With `CC1=C(C(=O)Nc2cccnc2)C(c2ccc(F)cc2)n2nc(SCc3ccccc3)nc2N1` (stereo not drawn) as the molecule, how does the “activity change, negative = growth inhibition” value read?
**A.** Its value is inactive: -13.1%.

**Q.** Which “activity change, negative = growth inhibition” value does the source give for `O=C(c1ccco1)N1CCC2(CC1)CN(c1ncccn1)C2` here?
**A.** Its value is inactive: -12.3%.

**Q.** Which activity change, negative = growth inhibition does the source give for `CNC(=S)NNC(=O)c1cn(C)nc1C` here?
**A.** Its activity change, negative = growth inhibition is inconclusive: -28.9% [inhibitor].

**Q.** For `COc1ccc(CNc2ncncc2-c2ccoc2)c(OC)c1`, which Potency is on record?
**A.** The Potency was inconclusive [inhibitor, partial curve].

**Q.** Which “activity change, negative = growth inhibition” value does the source give for `Cc1nc2ccc(NC(=S)N3CCOCC3)cc2nc1C` here?
**A.** The value was inactive: -4.55%.

**Q.** With `CC1=C(C(=O)N2CCOCC2)CC(CC(=O)NCCCCc2ccccc2)C(=O)N1CCC1=CCCCC1` (stereo not drawn) as the molecule, how does the Potency read?
**A.** The Potency was inconclusive [inhibitor, single point].

**Q.** For `COc1ccc(C2(O)CCN(CC(=O)Nc3nc(-c4ccccc4)cs3)CC2)cc1`, which Potency is on record?
**A.** The Potency was inconclusive [inhibitor, single point].

**Q.** For `CCC(NC(=S)NCc1ccc(F)cc1)c1ccc(C(C)C)cc1` (stereo not drawn), which Potency is on record?
**A.** Its Potency is inconclusive [inhibitor, single point].

**Q.** For `COc1cc(OC)c(NC(=O)CSc2nc3ccncc3[nH]2)cc1Cl`, which Potency is on record?
**A.** Its Potency is active: 5.17 µM.

**Q.** For `CC1(C)C(=O)OC(C(=O)c2ccccc2)C2(CCCCC2)C1=O` (stereo not drawn), which “activity change, negative = growth inhibition” value is on record?
**A.** The value was inactive: 0.188%.

**Q.** Which “activity change, negative = growth inhibition” value does the source give for `CC(=O)N1CCN(c2ccc(Oc3nc(-c4ccccc4)nc4ccccc34)cc2)CC1` here?
**A.** The value was inactive: -9.68%.

**Q.** For `COc1cc(NS(=O)(=O)c2ccc(C)c(C)c2)c(OC)cc1Cl`, which Potency is on record?
**A.** The Potency was inconclusive [inhibitor, single point].

**Q.** Which Potency does the source give for `CCOC(=O)CC1=C(C(=O)OCC)C(c2ccncc2)C(C#N)=C(N)O1` (stereo not drawn) here?
**A.** Its Potency is inconclusive [inhibitor, single point].

**Q.** For `COc1ccc(N(CC(=O)NN=C2CCN(C)CC2)S(=O)(=O)c2ccc(NC(C)=O)cc2)cc1`, which “activity change, negative = growth inhibition” value is on record?
**A.** The value was inactive: -1.27%.

**Q.** For `COc1ccc(N2CCOCC2)c(NC(=O)COc2cccc(C)c2C)c1`, which Potency is on record?
**A.** Its Potency is inconclusive [inhibitor, single point].

**Q.** Which “activity change, negative = growth inhibition” value does the source give for `CCCCNC(=O)CSc1nc2ccccc2nc1Cc1ccccc1` here?
**A.** Its value is inactive: -1.51%.

**Q.** Which Potency does the source give for `COc1ccccc1C(=O)NC(CCSC)C(=O)NNC(=O)C(C)Oc1ccccc1F` (stereo not drawn) here?
**A.** The Potency was inconclusive [inhibitor, single point].

**Q.** With `COc1ccc(NC(=O)[C@@H](NC(=O)c2ccccc2)C(C)C)cc1S(=O)(=O)N1CCCCC1` as the molecule, how does the Potency read?
**A.** Its Potency is inconclusive [inhibitor, single point].

**Q.** For `CCC1COCCS(=O)(=O)N1Cc1cccc(Cl)c1` (stereo not drawn), which Potency is on record?
**A.** Its Potency is inconclusive [inhibitor, single point].

**Q.** For `COC(=O)COc1ccc(S(=O)(=O)NCc2ccc3c(c2)OCO3)cc1`, which “activity change, negative = growth inhibition” value is on record?
**A.** Its value is inactive: -0.406%.

**Q.** For `CCOc1ccc(N=Nc2c(=O)[nH]n3c(=O)cc(C)[nH]c23)cc1`, which Potency is on record?
**A.** Its Potency is inconclusive [inhibitor, single point].

**Q.** With `O=C(O)c1cccc(CSc2ncn[nH]2)c1` as the molecule, how does the “activity change, negative = growth inhibition” value read?
**A.** The value was inactive: 28.6%.

**Q.** For `CC1(C)Cc2ccccc2C(NNC(=O)c2ccccc2)=N1`, which “activity change, negative = growth inhibition” value is on record?
**A.** The value was inactive: -21.8%.

**Q.** For `COc1cc(CNc2ccc(CNc3ncn[nH]3)cc2)cc(Cl)c1OCc1ccccc1`, which Potency is on record?
**A.** The Potency was inconclusive [inhibitor, single point].

**Q.** Which Potency does the source give for `O=C(c1ccc(Cl)cc1)c1ccc(OCC(=O)N2CCOCC2)cc1` here?
**A.** Its Potency is inconclusive [inhibitor, partial curve, poor fit].

**Q.** For `COC(=O)[C@@]12CCCCN1[C@H](c1ccc(-c3ccccc3)c(OC)c1)[C@H]1C(=O)N(C)C(=O)[C@H]12`, which Potency is on record?
**A.** The Potency was active: 13 µM.

**Q.** With `CCN1CCN(c2ccc(S(=O)(=O)N3CCOCC3)cc2NC(=O)c2ccc(F)cc2Cl)CC1` as the molecule, how does the Potency read?
**A.** Its Potency is inconclusive [inhibitor, single point].

**Q.** With `S=C(NCCCN1CCOCC1)N(Cc1ccccc1)Cc1ccccc1` as the molecule, how does the “activity change, negative = growth inhibition” value read?
**A.** The value was inactive: -6.16%.

**Q.** Which Potency does the source give for `CC(C)N1CCC(N2CCN(CCCc3ccccc3)CC2CCO)CC1` (stereo not drawn) here?
**A.** The Potency was inconclusive [inhibitor, single point].

**Q.** Which Potency does the source give for `O=C(N/N=C/C(Br)=C\c1ccccc1)c1ccco1` here?
**A.** The Potency was active: 9.2 µM.

**Q.** With `O=C(CCc1ccc(S(=O)(=O)N2CCCCC2)cc1)c1nnc(-c2ccccc2)o1` as the molecule, how does the Potency read?
**A.** Its Potency is inconclusive [inhibitor, partial curve].

**Q.** Which Potency does the source give for `CN(Cc1ccc(Cl)cc1)C(=O)CCl` here?
**A.** The Potency was active: 2.59 µM.

**Q.** For `CCOC(=O)c1nc(NNC(=O)c2ccc([N+](=O)[O-])cc2)sc1C`, which Potency is on record?
**A.** The Potency was inconclusive [inhibitor, single point].

**Q.** Which “activity change, negative = growth inhibition” value does the source give for `Cc1ccc(N2CC(NC(=O)C3CCCC3)CC2=O)cc1` (stereo not drawn) here?
**A.** The value was inactive: -11.5%.

**Q.** For `CNCc1ccc(OCc2ccccc2)c(OC)c1`, which “activity change, negative = growth inhibition” value is on record?
**A.** Its value is inactive: -11%.

**Q.** For `O=c1[nH]c(C2CCN(S(=O)(=O)c3ccc4c(c3)OCCO4)CC2)nc2c1nnn2Cc1cccc(F)c1`, which Potency is on record?
**A.** The Potency was inconclusive [inhibitor, single point].

**Q.** Which Potency does the source give for `COc1ccc(C2c3cc(OC)c(OC)cc3CCN2S(C)(=O)=O)cc1OC` (stereo not drawn) here?
**A.** The Potency was active: 20.6 µM.

**Q.** With `CC(C)CCNC(=O)c1ccc(NC(=O)N2CCCCc3ccccc32)cc1` as the molecule, how does the “activity change, negative = growth inhibition” value read?
**A.** Its value is inactive: 4.16%.
